# Experimental data reported in US20100093747A1, “METHOD OF INDUCING NEGATIVE CHEMOTAXIS” (priority 2008, published 2010).
# For at least one compound, name, drawing or mass did not settle the structure. Some entries share one result that the patent states for a list of compounds.
# System: human neutrophils
# Assay: Chemorepulsion (negative chemotaxis) of neutrophils in Neuroprobe ChemoTx plates, migrated cells quantified with Cell Titer Glo
# Assay type: cell-based
# Settings: neutrophils, 0.1, 1, 10 and 100 uM, screened once in CR mode, 1 hour
# Description: Prior to beginning the assay, the following were prepared: • a. 0.5% Fetal Calf Serum (FCS) in Iscove's Modified Dulbecco's Medium (IMDM) (Assay Medium) (Both from ATCC). • b. Migratory cells at a concentration of 2×10^7 cells/ml in Assay Medium. • c. Four serial (10-fold) dilutions of the ligand of interest in Assay Medium. All stocks were diluted initially 1:100 into Assay Medium and subsequently made into 10 fold dilutions (100 uM, 10 uM, 1 uM, 0.1 uM). […] The same dilutions were followed. • 2. […] The plates were removed from packaging, leaving the membrane behind. • 4. 31 μl of the following solutions were pipetted into each well: • a. For media controls and for chemorepulsion samples, Assay Medium was used. • b. For chemoattraction samples, appropriate dilution of ligand was used. • 5. A sterile needle was used to pop any and all small bubbles present in each well. • 6. The membrane was carefully placed onto the plate, starting at one side and then slowly lowering the other edge onto the plate. • 7. 29 μl of the following were pipetted onto the top of each circle: • a. For media controls and chemoattraction samples, use Assay Medium. • b. For chemorepulsion samples, use the appropriate dilution of ligand. • 8. 2 μl of cells (40,000 cells) were added to each bubble of liquid from step 7. • 9. A needle was used to pop all air bubbles. • 10. The plate was covered with the supplied lid and incubated for the desired time at 37° C. in 5% CO2. Unless otherwise indicated, the incubation time was 1 hour for neutrophils and 3 hours for T cells. For monocytes and B cells, the incubation time was 2 hours. • 11. After the desired assay time, the liquid was removed from the top of the plate using a Kimwipe. At this point, the plate was stored (with the membrane in place) for up to 2 hours at 4° C. • 12. The membrane was carefully removed from the top of the plate and discard. The plate was examined under a microscope to look for ligand crystallization, contamination and overall migration. • 13. White read plates were preloaded with 25 ul PBS. • 14. Using a multichannel pipettor, 5 ul of Cell Titer Glo (Promega # G7572) was added to each well. • 15. Using a multichannel pipettor set at 30 ul, lysed cell solution was transferred to white read plates pre-loaded with PBS. • 16. The plate was read using the BioTek Synergy4 plate reader in order to quantify the number of migrated cells.
# Compounds from the chemical analog library were screened once in CR mode as described.
row,Compound,chemorepulsion relative to media (omeprazole derivative library)
1,O=C(CSc1nc2cc([N+](=O)[O-])ccc2[nH]1)Nc1ccc(O)c(C(=O)O)c1 [Compound 59],at least 3 fold
2,CCOc1ccc2[nH]c(SCC(OCC)OCC)nc2c1 [Compound 158],less than 3 fold
3,COc1ccc2[nH]c(SCC(=O)Nc3ccc(Br)cc3)nc2c1 [Compound 38],at least 3 fold
4,COc1ccc2[nH]c(SCC(=O)Nc3ccc([N+](=O)[O-])cc3)nc2c1 [Compound 42],at least 3 fold
5,COC(=O)c1nnn(-c2nonc2N)c1CSc1nc2cc([N+](=O)[O-])ccc2[nH]1 [Compound 35],less than 3 fold
6,COc1ccc(Nc2nc(N)nc(CSc3nc4ccc(OC)cc4s3)n2)cc1 [Compound 67],less than 3 fold
7,COc1ccc2[nH]c(SCC(=O)Nc3ccccc3F)nc2c1 [Compound 16],at least 3 fold
8,O=C(CSc1nc2cc([N+](=O)[O-])ccc2[nH]1)Nc1cccn2cc(-c3ccccc3)nc12 [Compound 94],less than 3 fold
9,COc1ccc(NC(=O)CSc2nc3cc([N+](=O)[O-])ccc3[nH]2)c(OC)c1 [Compound 33],at least 3 fold
10,O=[N+]([O-])c1ccc2[nH]c(SCc3nc4sccn4c3Br)nc2c1 [Compound 141],less than 3 fold
11,COc1ccc2nc(SCc3nc(N)nc(Nc4cccc(C)c4C)n3)sc2c1 [Compound 68],less than 3 fold
12,COc1ccc2[nH]c(SCC(=O)Nc3ccc(Cl)cc3)nc2c1 [Compound 40],at least 3 fold
13,COc1ccc2[nH]c(N3CCCC(C(=O)NCCc4ccc(Cl)cc4)C3)nc2c1 (stereo not shown) [Compound 128],at least 3 fold
14,COc1ccc2[nH]c(SCCN3CCCCC3)nc2c1 [Compound 6],less than 3 fold
15,COc1ccc2[nH]c(SCC(=O)Nc3ccccc3[N+](=O)[O-])nc2c1 [Compound 41],at least 3 fold
16,COc1cc2c(cc1NC(=O)CSc1nc3cc([N+](=O)[O-])ccc3[nH]1)oc1ccccc12 [Compound 50],less than 3 fold
17,COc1ccc2[nH]c(SCC(=O)Nc3ccc(S(N)(=O)=O)cc3)nc2c1 [Compound 18],less than 3 fold
18,CCOc1ccc2[nH]c(SCC(=O)Nc3cc(C(=O)O)cc(C(=O)O)c3)nc2c1 [Compound 57],less than 3 fold
19,COc1ccc2[nH]c(SCC(=O)Nc3ccc4c(c3)OCO4)nc2c1 [Compound 36],at least 3 fold
20,COc1ccc2[nH]c(SCC(=O)Nc3cccc(NC(C)=O)c3)nc2c1 [Compound 46],less than 3 fold
21,Cc1csc2nc(CSc3nc4cc([N+](=O)[O-])ccc4[nH]3)cn12 [Compound 30],less than 3 fold
22,COc1ccc2[nH]c(SCC(=O)Nc3ccccc3Br)nc2c1 [Compound 39],at least 3 fold
23,COC(=O)NC(=O)CSc1nc2cc(OC)ccc2[nH]1 [Compound 156],less than 3 fold
24,COC(=O)c1ccc(NC(=O)CSc2nc3cc(OC)ccc3[nH]2)cc1 [Compound 53],less than 3 fold
25,O=[N+]([O-])c1ccc2nc(-c3cn4ccsc4n3)sc2c1 [Compound 132],at least 3 fold
26,COc1ccc2[nH]c(SCC(=O)Nc3cc(Sc4ccc(F)cc4)cc([N+](=O)[O-])c3)nc2c1 [Compound 108],less than 3 fold

row,Compound,chemorepulsion relative to media (omeprazole derivative library)
1,COc1ccc2[nH]c(SCC(=O)O)nc2c1 [Compound 149],less than 3 fold
2,CCOC(=O)c1nnn(-c2nonc2N)c1CSc1nc2ccc(OCC)cc2[nH]1 [Compound 73],less than 3 fold
3,COc1ccc2[nH]c(SCc3ccccc3OC)nc2c1 [Compound 64],less than 3 fold
4,COc1ccc2[nH]c(SCC(=O)Nc3ccc(NC(C)=O)cc3)nc2c1 [Compound 106],less than 3 fold
5,COc1ccc2[nH]c(SCC(=O)OC3CC(C)CCC3C(C)C)nc2c1 (stereo not shown) [Compound 85],less than 3 fold
6,CCOc1ccc2[nH]c(SCC(=O)Nc3nccs3)nc2c1 [Compound 60],at least 3 fold
7,CCOc1ccc2[nH]c(SCC(=O)Nc3ccccc3)nc2c1 [Compound 63],at least 3 fold
8,COc1ccc2[nH]c(SCC(=O)Nc3cc4oc5ccccc5c4cc3OC)nc2c1 [Compound 49],less than 3 fold
9,COc1ccc2[nH]c(SCc3cccc(I)c3)nc2c1 [Compound 45],at least 3 fold
10,O=C(CSc1nc2cc([N+](=O)[O-])ccc2[nH]1)Nc1ccccc1F [Compound 12],at least 3 fold
11,CCCSc1ccc2[nH]c(NC(=O)OC)nc2c1 [Compound 2],less than 3 fold
12,COc1ccc(NC(=O)CSc2nc3cc(OC)ccc3[nH]2)cc1 [Compound 19],less than 3 fold
13,CCCCCCCCCCCCOc1ccc2[nH]c(SCCN3CCCCC3)nc2c1 [Compound 87],less than 3 fold
14,CCOc1ccc2[nH]c(NCCCO)nc2c1 [Compound 29],less than 3 fold
15,COc1ccc2[nH]c(S(=O)(=O)O)nc2c1 [Compound 25],less than 3 fold
16,CCOc1ccc2[nH]c(SCC(=O)Nc3ccc(O)c(C(=O)O)c3)nc2c1 [Compound 58],at least 3 fold
17,CCOc1ccc2[nH]c(SCC(=O)Nc3ccc4c(c3)OCO4)nc2c1 [Compound 95],less than 3 fold
18,COc1ccc(CNC(=O)CSc2nc3cc([N+](=O)[O-])ccc3[nH]2)cc1 [Compound 148],less than 3 fold
19,COc1ccc2[nH]c(N3CCCC(C(=O)NCCc4ccccc4)C3)nc2c1 (stereo not shown) [Compound 157],at least 3 fold
20,COc1ccc2[nH]c(SCC(=O)Nc3nonc3NC(C)=O)nc2c1 [Compound 155],less than 3 fold
21,COc1ccc2[nH]c(SCC(=O)Nc3nc4ccc(OC)cc4s3)nc2c1 [Compound 17],at least 3 fold
22,CCOc1ccc2[nH]c(SCC(=O)N(c3ccccc3)C(C)C)nc2c1 [Compound 62],at least 3 fold
23,COc1ccc2[nH]c(SCC(=O)Nc3cc(Cl)ccc3OC)nc2c1 [Compound 37],at least 3 fold
24,O=C(O)CSc1nc2cc([N+](=O)[O-])ccc2[nH]1 [Compound 153],less than 3 fold
25,COc1ccc2[nH]c(SCC(=O)Nc3ccon3)nc2c1 [Compound 79],at least 3 fold

# Same assay, conditions: neutrophils, four 10-fold dilutions
row,Compound,dose dependence of the induction of chemotaxis / chemorepulsion
1,"COc1ccc2[nH]c([S+]([O-])Cc3ncc(C)c(OC)c3C)nc2c1 (stereo not shown) [omeprazole, reference compound]",dose-dependent
